Assay results: PubChem BioAssay (NCI)
“And” between values parts separate entries of the source, which are not always exact repeats. Identical values can stand only once.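 Five compound concentrations were applied to cells in 96-well plates for 48 hours; endpoints were derived by simple linear interpolation of the resulting dose-response curve. At the GI50, growth is halved. TGI marks complete inhibition of growth.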

System: NCI-H322M lung
Assay: NCI tumour cell line growth inhibition, 48 h

Row | SMILES | TGI | GI50
1 | CCOC(=O)N1CCN(Cc2cc(=O)n3ccc(C)cc3n2)CC1 | > 100 µM | 
2 | O=C1CCCCN1c1ccccc1C#C/C=C\C#Cc1ccccc1C(F)(F)F | > 50 µM | 6.9 µM
3 | CC1=C2C(=C[C@@](C)(CO)[C@@H]2O)C(=O)[C@](C)(O)C12CC2 | 0.0542 µM and 0.0632 µM | 
4 | Cc1ccc(NC(=O)c2ccc(OP(=O)(O)Nc3ccc(C)cc3)cc2)cc1 | > 100 µM | 
5 | Oc1ccccc1CNCc1nc2ccccc2[nH]1 | > 100 µM | 
6 | COc1cccc(-c2nc(-c3ccc(NC(=O)OC(C)C)cc3)[nH]c2-c2ccnc(Br)c2)c1 | > 100 µM | 2.89 µM
7 | NC(=O)C(=Cn1c(=S)[nH]c2ccc([N+](=O)[O-])cc21)C(N)=O | > 100 µM | 
8 | Nn1c(-c2ccccc2)n[nH]c1=O | > 100 µM | 
9 | CC1(COc2ccc3c(c2)ncn3-c2ccc3cccc(N4CCC(N)CC4)c3n2)COC1 | 10.4 µM and 8.39 µM | 2.72 µM and 2.24 µM
10 | Nc1nc(SCCC/C=C/I)nc2c1ncn2C1OC(COP(=O)(O)O)C(O)C1O (stereo not drawn) | > 100 µM | 
11 | O=C(NCc1ccccc1)c1n[nH][nH]c1=O | > 100 µM | 
12 | C[C@]12CCC3C4=C(CCC3C1CCC2=O)C(=O)[C@H]1O[C@H]1C4=O (stereo partly drawn) | 30.8 µM | 
13 | O=S(=O)(c1ccccc1)N1CCN(S(=O)(=O)c2ccccc2)c2ccccc21 | > 100 µM | 
14 | C=CC1(CC/C(=C\[N+](=O)[O-])c2ccc(OC)c(OC)c2)OCC(C)(C)CO1 | 43.1 µM | 
15 | Cc1ccnc(NS(=O)(=O)c2ccc(N=[N+]=[N-])cc2)n1 | > 100 µM | 
16 | O=C(/C=C/c1ccc2c(c1)OCO2)c1ccc(O)cc1 | 32.1 µM | 
17 | CCn1c(-c2nonc2N)nc2c(C#CC(C)(C)O)nc(OC[C@@H](N)c3ccccc3)cc21 | 17.1 µM | 7.59 µM
18 | C#CCn1c(=O)c2ccccc2n(CC#C)c1=O | > 10 µM | 
19 | NC(=O)c1ccccc1NC(=O)C(=O)C(C(=O)c1ccc(Cl)c(Cl)c1)C1OC(=O)c2ccccc21 (stereo not drawn) | > 100 µM | 
20 | CCC(=C/[C@H](C)C/C=C/C(C)=C/[C@@H](C)C(=O)[C@@H](C)[C@H](O)[C@@H](C)CC)/C=C/[C@H]1OC(=O)C=C[C@@H]1C | 4.24 µM | < 0.01 µM
21 | CC1CN(C)c2ccccc2N=C1NN (stereo not drawn) | > 100 µM | 
22 | CC(=O)N1C(C(=O)NC2CCCCC2)CSC1c1ccccc1 (stereo not drawn) | > 100 µM | 
23 | CCCCCC1=CC(=O)C1(Cl)Cl | 27.6 µM | 
24 | NS(=O)(=O)c1nnc(NC(=O)Nc2ccc(Cl)c(Cl)c2)s1 | 53.9 µM | 
25 | CN(C)CCn1c2c3ccccc3ccc2c2oc(=O)c3ccccc3c21 | 32.2 µM | 

Row | SMILES | TGI | GI50
26 | Nc1n[nH]c2cccc(C#Cc3cccc(C(=O)Nc4ccc(CN5CCOCC5)c(C(F)(F)F)c4)c3)c12 | 10.2 µM | 2.96 µM
27 | O=CNc1ccc2c(c1)C(=O)c1ccccc1-2 | > 100 µM | 
28 | CC(=O)/C=C/C1=C(C)CCCC1(C)CC(C)C (stereo not drawn) | > 100 µM | 
29 | COc1ccc(-n2c(C)nc3ccc(NC(=S)Nc4ccccc4)cc3c2=O)cc1 | > 100 µM | 
30 | Cc1cc2c(C)[nH]nc2c(C(=O)O)c1C | > 100 µM | 
31 | Cn1ccc2c3c(Oc4ccc(NC(N)=O)cc4)ccnc3ccc21 | > 100 µM | > 100 µM
32 | [N-]=[N+]=NC(c1ccccc1)(c1ccccc1)c1ccccc1 | 35.2 µM | 
33 | CCCCCCCCCCCCC(O)c1ccc(C#CCCCCCCCCCO)o1 (stereo not drawn) | 37.9 µM | 21 µM
34 | Nc1c(-c2ccc(Cl)c(Cl)c2)c2ccc([N+](=O)[O-])cc2c(=O)n1-c1nc2ccccc2s1 | 17 µM | 
35 | Cc1cc(I)cc(CN(CCCN(C)C)C(C)C)c1O | 52.1 µM | 22.9 µM
36 | COc1ccc(/C=N/NC(=O)c2cccc3cc[nH]c23)cc1O | > 100 µM | 8.3 µM
37 | COc1nncc2[nH]c(-c3ccccc3)cc12 | > 100 µM | 
38 | O=[N+]([O-])c1cc(C=NC23CC4CC(CC(C4)C2)C3)ccc1Cl | > 100 µM | 
39 | CCOC(=S)SCC(=O)O | > 100 µM | 
40 | CCCCN(CCCC)C(=O)C(=O)C(C(=O)c1ccc(OC)cc1)c1ccc(OC)cc1 (stereo not drawn) | > 100 µM | 
41 | O=C1c2cc3c(cc2-c2c1c1ccc(F)cc1c(=O)n2C[C@H](O)[C@@H](O)[C@H](O)CO)OCO3 | 13.8 µM | 0.219 µM
42 | O=c1c(-c2ccccc2)c2oc(c1-c1ccccc1)CSCc1cccc(c1)CSC2 | > 100 µM | 
43 | CC(C)(C)c1cc2c(O)c3cccc4c(=O)c5cccc6c5-c(c34)c2c(c1)c6=O | > 100 µM | 
44 | COc1ccc(C)cc1-c1cc(Sc2ccccc2)c(-c2cc(C)ccc2OC)o1 | > 31.6 µM | 
45 | O=[N+]([O-])c1ccc2[nH]nc(OCc3ccccc3Cl)c2c1 | > 100 µM | 
46 | CCOC(=O)c1c(CN2CCCC2)n(-c2ccccc2)c2cc(Br)c(O)cc12 | 74.1 µM | 
47 | O=C(Nc1ccccc1-c1nn(C(=S)Nc2ccccc2)c(=S)n(C(=S)Nc2ccccc2)c1=O)C(F)(F)F | > 85.9 µM | 
48 | Cc1cc(-c2nc3ccc(F)cc3s2)ccc1NC(=O)[C@H](C)N | 21.9 µM | 
49 | CC(=O)Oc1cccc2c1C(=O)CCCC2 | > 100 µM | 
50 | Nc1ccc(C2=NNC(=O)Cc3cc4c(cc32)OCCO4)cc1Cl | > 50 µM | 19 µM

Row | SMILES | TGI | GI50
51 | COC(=O)C1=C(C(=O)OC)SC(=C2SCSC3=C2SC(C(=O)OC)=C(C(=O)OC)C32SC3=C(CCCC3)S2)S1 | > 100 µM | 
52 | O=C(/C=C/c1ccccc1)C[C@@H](O)C[C@@H]1CC=CC(=O)O1 | 27.1 µM | 
53 | Cn1c(=O)c2c(nc3n2CC(C(=O)O)N3)n(C)c1=O (stereo not drawn) | > 100 µM | 
54 | O=C(/C(=C/c1ccc([N+](=O)[O-])cc1)SCc1ccccc1)c1ccc(Cl)cc1 | 26.5 µM | 13.3 µM
55 | C/C(CCn1[nH]c(=O)ccc1=O)=N\NC(=O)C(=O)NN | > 100 µM | 
56 | COc1ccc2nc(NC(=O)CSc3nnc4n3S(=O)(=O)c3ccccc3N4c3ccccc3)sc2c1 | > 100 µM | > 100 µM
57 | O=S(=O)(c1ccccc1)c1cccc2c1NCCC2 | > 100 µM | 
58 | N#CC(C#N)=C/C=C(\Sc1nc2ccccc2s1)c1ccc(Cl)cc1 | 38.4 µM | 18.8 µM
59 | COc1cc(S(=O)(=O)Nc2nc(-c3ccc(N4C(=O)C(CC(=O)O)SC4c4cccs4)cc3)cs2)ccc1Cl (stereo not drawn) | > 100 µM | 
60 | O=C(O)c1nc2nc(Cl)c(Cl)nc2[nH]1 | > 100 µM | 
61 | C[C@]12CCC3c4ccc(O)cc4CCC3C1CC[C@@]2(O)CNC(=O)/C=C/c1ccc(O)c(O)c1 (stereo partly drawn) | 24.7 µM | 8.14 µM
62 | CC(=O)N(C(=O)CC(=O)N1N=C(c2ccccc2)C(N=Nc2ccccc2[N+](=O)[O-])C1=O)c1ccc(Cl)cc1 (stereo not drawn) | > 10 µM | 
63 | COc1ccc(-c2cn[nH]c2-c2cc(OC)c(OC)c(OC)c2)cc1 | > 44.6 µM | 0.0553 µM
64 | CCCCOC(=O)Nc1ccc(S(=O)(=O)Nc2ccccc2Cl)cc1 | 71.3 µM | 
65 | O=C1C=C[C@@H](COC2OC(CO)C(O)C(O)C2O)O1 (stereo partly drawn) | 35.1 µM and 29.3 µM | 
66 | CC(=O)c1c2c(c3ccccc3c1O)O[C@@H]1OCC[C@H]21 | > 100 µM | 
67 | O=C(O)c1ccc2c(c1C(=O)O)C(=O)OC2(c1ccc(O)cc1)c1ccc(O)cc1 | > 100 µM | 
68 | COc1cc(/C(C#N)=C/c2nc3c(N4CCOCC4)nc(Cl)nc3n2C)cc(OC)c1OC | > 100 µM | < 0.01 µM
69 | O=C(Cc1ccc(O)c(O)c1)NCc1c[nH]c2ccccc12 | > 100 µM | 
70 | CC1=C(Cl)C=CP(=O)(Oc2ccccc2)C1 (stereo not drawn) | > 100 µM | 
71 | COC[C@H]1Cn2cc(-c3nc(Nc4ccnn4C)ncc3C)nc2C(=O)N1Cc1ccc(F)c(F)c1 | > 100 µM | 1.07 µM
72 | Nc1ncnc2c1[nH]c(=O)n2-c1ccccc1 | > 100 µM | 
73 | COc1ccc2[nH]cc(/C=C(/C)c3ccncc3)c2c1 | > 100 µM | 14 µM
